Reference: the supplement of paper PMC10724272

compound: CCCCCOc1ccc(-c2ccc(-c3ccc(C(=O)N[C@H]4C[C@@H](O)[C@@H](O)NC(=O)[C@@H]5[C@@H](O)[C@@H](C)CN5C(=O)[C@H]([C@@H](C)O)NC(=O)[C@H]([C@H](O)[C@@H](O)c5ccc(O)cc5)NC(=O)[C@@H]5C[C@@H](O)CN5C(=O)[C@H]([C@@H](C)O)NC4=O)cc3)cc2)cc1 [anidulafungin]; experiment: CLSI broth microdilution.

Test System | MIC
Candida tropicalis isolate 135 (ERG11 copies: 2, Erg11p: no key change) | 0.12 mg/L [S]
Candida tropicalis isolate 151 (ERG11 copies: 2, Erg11p: no key change) | 0.12 mg/L [S]
Candida tropicalis isolate 86 (ERG11 copies: 2, Erg11p: no key change) | 0.03 mg/L [S]
Candida tropicalis isolate 371 (ERG11 copies: 2, Erg11p: no key change) | 0.12 mg/L [S]
Candida tropicalis isolate 333 (ERG11 copies: 2, Erg11p: no key change) | ≤ 0.015 mg/L [S]
Candida tropicalis isolate 218 (ERG11 copies: 2, Erg11p: no key change) | 0.12 mg/L [S]
Candida tropicalis isolate 448 (ERG11 copies: 7, Erg11p: Y132F, S154F (heterozygous)) | 0.03 mg/L [S]
Candida tropicalis isolate 339 (ERG11 copies: 3, Erg11p: Y132F, S154F (heterozygous)) | 0.12 mg/L [S]
Candida tropicalis isolate 177 (ERG11 copies: 2, Erg11p: no key change) | 0.12 mg/L [S]
Candida tropicalis isolate 53 (ERG11 copies: 2, Erg11p: no key change) | ≤ 0.015 mg/L [S]
Candida tropicalis isolate 335 (ERG11 copies: 2, Erg11p: no key change) | 0.06 mg/L [S]
Candida tropicalis isolate 428 (ERG11 copies: 2, Erg11p: Y257H (homozygous)) | 0.12 mg/L [S]
Candida tropicalis isolate 176 (ERG11 copies: 2, Erg11p: no key change) | 0.03 mg/L [S]
Candida tropicalis isolate 292 (ERG11 copies: 2, Erg11p: no key change) | 0.12 mg/L [S]
Candida tropicalis isolate 432 (ERG11 copies: 2, Erg11p: no key change) | 0.03 mg/L [S]
Candida tropicalis isolate 186 (ERG11 copies: 2, Erg11p: no key change) | 0.06 mg/L [S]
Candida tropicalis isolate 414 (ERG11 copies: 2, Erg11p: no key change) | ≤ 0.015 mg/L [S]
Candida tropicalis isolate 323 (ERG11 copies: 2, Erg11p: no key change) | 0.12 mg/L [S]
Candida tropicalis isolate 9 (ERG11 copies: 2, Erg11p: no key change) | ≤ 0.015 mg/L [S]
Candida tropicalis isolate 172 (ERG11 copies: 2, Erg11p: no key change) | 0.12 mg/L [S]
Candida tropicalis isolate 61 (ERG11 copies: 2, Erg11p: no key change) | 0.03 mg/L [S]
Candida tropicalis isolate 343 (ERG11 copies: 2, Erg11p: no key change) | 0.06 mg/L [S]
Candida tropicalis isolate 423 (ERG11 copies: 8, Erg11p: Y132F, S154F (heterozygous)) | 0.12 mg/L [S]
Candida tropicalis isolate 108 (ERG11 copies: 2, Erg11p: Y132F, S154F (heterozygous)) | 0.12 mg/L [S]
Candida tropicalis isolate 253 (ERG11 copies: 2, Erg11p: no key change) | 0.25 mg/L [S]
Candida tropicalis isolate 219 (ERG11 copies: 2, Erg11p: no key change) | 0.06 mg/L [S]
Candida tropicalis isolate 375 (ERG11 copies: 2, Erg11p: no key change) | 0.03 mg/L [S]

compound: CC[C@@H]([C@H](C)O)n1ncn(-c2ccc(N3CCN(c4ccc(OC[C@@H]5CO[C@@](Cn6cncn6)(c6ccc(F)cc6F)C5)cc4)CC3)cc2)c1=O [posaconazole]; experiment: CLSI broth microdilution.

Test System | MIC
Candida tropicalis isolate 424 (ERG11 copies: 2, Erg11p: no key change) | 0.25 mg/L [S]
Candida tropicalis isolate 192 (ERG11 copies: 2, Erg11p: no key change) | 0.25 mg/L [S]
Candida tropicalis isolate 212 (ERG11 copies: 2, Erg11p: no key change) | 1 mg/L [R]
Candida tropicalis isolate 98 (ERG11 copies: 2, Erg11p: no key change) | 0.25 mg/L [S]
Candida tropicalis isolate 337 (ERG11 copies: 2, Erg11p: no key change) | 0.25 mg/L [S]
Candida tropicalis isolate 3 (ERG11 copies: 7, Erg11p: Y132F, S154F (heterozygous)) | 1 mg/L [R]
Candida tropicalis isolate 381 (ERG11 copies: 7, Erg11p: Y132F, S154F (heterozygous)) | 1 mg/L [R]
Candida tropicalis isolate 97 (ERG11 copies: 2, Erg11p: no key change) | 0.12 mg/L [S]
Candida tropicalis isolate 433 (ERG11 copies: 2, Erg11p: no key change) | 0.12 mg/L [S]
Candida tropicalis isolate 135 (ERG11 copies: 2, Erg11p: no key change) | 0.25 mg/L [S]
Candida tropicalis isolate 151 (ERG11 copies: 2, Erg11p: no key change) | 0.06 mg/L [S]
Candida tropicalis isolate 86 (ERG11 copies: 2, Erg11p: no key change) | 0.12 mg/L [S]
Candida tropicalis isolate 371 (ERG11 copies: 2, Erg11p: no key change) | 0.12 mg/L [S]
Candida tropicalis isolate 333 (ERG11 copies: 2, Erg11p: no key change) | 0.25 mg/L [S]
Candida tropicalis isolate 218 (ERG11 copies: 2, Erg11p: no key change) | 0.25 mg/L [S]
Candida tropicalis isolate 448 (ERG11 copies: 7, Erg11p: Y132F, S154F (heterozygous)) | 1 mg/L [R]
Candida tropicalis isolate 339 (ERG11 copies: 3, Erg11p: Y132F, S154F (heterozygous)) | 1 mg/L [R]
Candida tropicalis isolate 177 (ERG11 copies: 2, Erg11p: no key change) | 0.12 mg/L [S]

Test System | MIC
Candida tropicalis isolate 53 (ERG11 copies: 2, Erg11p: no key change) | 0.06 mg/L [S]
Candida tropicalis isolate 335 (ERG11 copies: 2, Erg11p: no key change) | 0.03 mg/L [S]
Candida tropicalis isolate 428 (ERG11 copies: 2, Erg11p: Y257H (homozygous)) | 0.5 mg/L [R]
Candida tropicalis isolate 176 (ERG11 copies: 2, Erg11p: no key change) | 0.12 mg/L [S]
Candida tropicalis isolate 292 (ERG11 copies: 2, Erg11p: no key change) | 0.06 mg/L [S]
Candida tropicalis isolate 432 (ERG11 copies: 2, Erg11p: no key change) | 0.12 mg/L [S]
Candida tropicalis isolate 186 (ERG11 copies: 2, Erg11p: no key change) | 0.03 mg/L [S]
Candida tropicalis isolate 414 (ERG11 copies: 2, Erg11p: no key change) | 0.12 mg/L [S]
Candida tropicalis isolate 323 (ERG11 copies: 2, Erg11p: no key change) | 0.5 mg/L [R]
Candida tropicalis isolate 9 (ERG11 copies: 2, Erg11p: no key change) | 0.12 mg/L [S]
Candida tropicalis isolate 172 (ERG11 copies: 2, Erg11p: no key change) | 0.5 mg/L [R]
Candida tropicalis isolate 61 (ERG11 copies: 2, Erg11p: no key change) | 0.12 mg/L [S]
Candida tropicalis isolate 343 (ERG11 copies: 2, Erg11p: no key change) | 0.25 mg/L [S]
Candida tropicalis isolate 423 (ERG11 copies: 8, Erg11p: Y132F, S154F (heterozygous)) | 0.5 mg/L [R]
Candida tropicalis isolate 108 (ERG11 copies: 2, Erg11p: Y132F, S154F (heterozygous)) | 0.25 mg/L [S]
Candida tropicalis isolate 253 (ERG11 copies: 2, Erg11p: no key change) | ≥ 8 mg/L [R]
Candida tropicalis isolate 219 (ERG11 copies: 2, Erg11p: no key change) | 0.12 mg/L [S]
Candida tropicalis isolate 375 (ERG11 copies: 2, Erg11p: no key change) | 0.06 mg/L [S]

compound: CC[C@H](C)C[C@H](C)CCCCCCCCC(=O)N[C@H]1C[C@@H](O)[C@@H](NCCN)NC(=O)[C@@H]2[C@@H](O)CCN2C(=O)[C@H]([C@H](O)CCN)NC(=O)[C@H]([C@H](O)[C@@H](O)c2ccc(O)cc2)NC(=O)[C@@H]2C[C@@H](O)CN2C(=O)[C@H]([C@@H](C)O)NC1=O [caspofungin]; experiment: CLSI broth microdilution.

Test System | MIC
Candida tropicalis isolate 424 (ERG11 copies: 2, Erg11p: no key change) | 0.03 mg/L [S]
Candida tropicalis isolate 192 (ERG11 copies: 2, Erg11p: no key change) | 0.03 mg/L [S]
Candida tropicalis isolate 212 (ERG11 copies: 2, Erg11p: no key change) | 0.015 mg/L [S]
Candida tropicalis isolate 98 (ERG11 copies: 2, Erg11p: no key change) | 0.03 mg/L [S]
Candida tropicalis isolate 337 (ERG11 copies: 2, Erg11p: no key change) | 0.06 mg/L [S]
Candida tropicalis isolate 3 (ERG11 copies: 7, Erg11p: Y132F, S154F (heterozygous)) | 0.03 mg/L [S]
Candida tropicalis isolate 381 (ERG11 copies: 7, Erg11p: Y132F, S154F (heterozygous)) | 0.06 mg/L [S]
Candida tropicalis isolate 97 (ERG11 copies: 2, Erg11p: no key change) | 0.03 mg/L [S]
Candida tropicalis isolate 433 (ERG11 copies: 2, Erg11p: no key change) | 0.12 mg/L [S]
Candida tropicalis isolate 135 (ERG11 copies: 2, Erg11p: no key change) | 0.06 mg/L [S]
Candida tropicalis isolate 151 (ERG11 copies: 2, Erg11p: no key change) | 0.03 mg/L [S]
Candida tropicalis isolate 86 (ERG11 copies: 2, Erg11p: no key change) | 0.03 mg/L [S]
Candida tropicalis isolate 371 (ERG11 copies: 2, Erg11p: no key change) | 0.03 mg/L [S]
Candida tropicalis isolate 333 (ERG11 copies: 2, Erg11p: no key change) | 0.03 mg/L [S]
Candida tropicalis isolate 218 (ERG11 copies: 2, Erg11p: no key change) | 0.03 mg/L [S]
Candida tropicalis isolate 448 (ERG11 copies: 7, Erg11p: Y132F, S154F (heterozygous)) | 0.06 mg/L [S]
Candida tropicalis isolate 339 (ERG11 copies: 3, Erg11p: Y132F, S154F (heterozygous)) | 0.06 mg/L [S]
Candida tropicalis isolate 177 (ERG11 copies: 2, Erg11p: no key change) | 0.03 mg/L [S]

MIC of invasive clinical C. tropicalis isolates, CLSI broth microdilution (fluconazole 0.12-256 mg/L, up to 1,024 for the azole-resistant cluster and its neighbour group; other ranges not stated); higher = less susceptible. Call: susceptible or wild type [S] / resistant or non-wild type [R] by CLSI breakpoints or cut-offs; intermediate and dose-dependent carry no call. '<=' and '>=' at the end values are inferred; the source marks only some of them. Isolates are numbered anew.
